Assay results as given in PubChem BioAssay AID624418 (National Center for Advancing Translational Sciences (NCATS), 2012).
In all, about 410,000 compounds went through this assay and about 530 (0.13%) were called active. Inconclusive means that the source gave no clear call. Such entries were picked first, then a sample of the others. Calls come from the whole dose curve; as a rule, active = well fitted inhibition curve with a large enough effect; inconclusive = small, poorly fitted or top-dose-only effect, or another doubt; inactive = no such curve, though single readings can be large or run the other way. Where the call is inconclusive, the potency comes from a doubtful curve fit.

experiment: qHTS of GLP-1 Receptor Inverse Agonists: Cytotox Screen; settings: HEK293 cAMP-luciferase reporter cells, luminescence, 24 h; activity change, negative = inhibition: at 38.3 µM (top of the series) unless noted
Summary of the method: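 Seeding density was 200 cells/uL; after overnight-length (12 h) culture, 23 nL compounds went on for 24 h at 37 °C. Readout used a luciferase detection reagent, luminescence taken after 12 min at room temperature.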
% is set by controls: 0 for no effect and ±100 for the full control effect; potency is the fitted concentration of half-maximal effect.

Compound	Potency	activity change, negative = inhibition
CN(CCC#N)c1ccc(C=C(C#N)c2cccc(C(F)(F)F)c2)cc1	inconclusive: 12.6 µM [inhibitor, single point]	
CN(C)C1(CNC(=O)Nc2ccc(Cl)c(Cl)c2)CCCCC1	inconclusive: 8.91 µM [inhibitor, partial curve, poor fit]	
COc1cc(OC)nc(Nc2nc(C(N)COCc3ccccc3)cs2)n1 (stereo not given)	inconclusive: 10 µM [inhibitor, single point]	
C=C[C@]1(C)C=C2C(=O)[C@@]3(O)OC(=O)[C@@]4(CCCC(C)(C)[C@H]34)[C@@]2(O)CC1	inconclusive: 10 µM [inhibitor, partial curve, poor fit]	
CC1CCC(C(C)C)C(OCC(O)CNC(C)c2ccccc2)C1 (stereo not given)	inconclusive: 20 µM [inhibitor, single point]	
COc1ccccc1CN1CCCC(C(=O)c2ccccc2OC)C1 (stereo not given)	inconclusive: 15.8 µM [inhibitor, single point]	
Oc1ccccc1N=Nc1ccccc1O	inconclusive: 1 µM [inhibitor, full curve, poor fit]	
C=C1C(=O)[C@@]23C[C@H]4[C@@H]5[C@@]6(C)CCC[C@@]57[C@@H]2[C@@H](O)[C@@H]1C[C@H]3[C@H]7N4C6	inconclusive: 10 µM [inhibitor, partial curve]	
CC(C)CNc1c2c(nc3ccccc13)CCC2		inconclusive: -64.8% [inhibitor]
O=C1c2ccccc2-c2n[nH]c(=O)c3ccc(N4CCCCC4)c1c23	inconclusive: 11.2 µM [inhibitor, single point]	
Cc1cc(-c2ccc(S(=O)(=O)Nc3ccc(Br)c(C)c3)s2)on1	inconclusive: 28.2 µM [inhibitor, single point]	
CCc1nnc(N/N=C/c2ccc(N3CCC(C)CC3)c([N+](=O)[O-])c2)n1N	inconclusive: 10 µM [inhibitor, single point]	
CCOc1cc(CNC(C)C(O)c2ccccc2)cc(Cl)c1OCC (stereo not given)	inconclusive: 10 µM [inhibitor, partial curve, poor fit]	
O=c1[nH]c(=S)[nH]c(O)c1N=Nc1ccc2c(c1)OCCO2	inconclusive: 11.2 µM [inhibitor, single point]	
N#Cc1ccc2nc(-c3ccc(CN4CCC(n5c(=O)[nH]c6ccccc65)CC4)cc3)c(-c3ccccc3)nc2c1	inconclusive: 7.08 µM [inhibitor, partial curve]	
Clc1ccc2c(N/N=C/c3ccc(Br)cc3)ccnc2c1	inconclusive: 11.2 µM [inhibitor, single point]	
CC(C)(C)OC(=O)[C@H](Cc1ccccc1)NC(=O)c1nc[nH]c1C(=O)NC1CCN(C(=O)OC(C)(C)C)CC1	inconclusive: 10 µM [inhibitor, single point]	
O=C(Nc1cccc(Cl)c1)c1cc(S(=O)(=O)NCCc2ccc(Cl)cc2)ccc1F	inconclusive: 12.6 µM [inhibitor, partial curve, poor fit]	
Cc1ccc(-n2c(O)c(/C=C3/C(c4ccccc4)=Nc4ccccc43)c(=O)[nH]c2=O)cc1	inconclusive: 1.26 µM [inhibitor, full curve, poor fit]	
O=C(CCOc1cccc(Br)c1)Nc1ccc(F)c(S(=O)(=O)N2CCOCC2)c1	inconclusive: 10 µM [inhibitor, single point]	

Compound	Potency	activity change, negative = inhibition
COC(=O)C1=C(c2ccc(S(C)(=O)=O)cc2)C[C@@H]2CC[C@H]1N2C(=O)NCCNC(C)=O	inconclusive: 0.708 µM [inhibitor, full curve]	
Cc1c(CN2CCC(CO)(CCOc3ccccc3)CC2)[nH]c2c(Cl)cccc12	inconclusive: 12.6 µM [inhibitor, single point]	
Cc1nnnn1/C(=C\c1ccccc1)C(=O)OCC(=O)NC1CCCCC1	inconclusive: 11.2 µM [inhibitor, single point]	
COc1ccccc1NC(=S)N(Cc1ccco1)Cc1cc2cc(C)ccc2[nH]c1=O	inconclusive: 10 µM [inhibitor, single point]	
C=C1C(=O)OC2CC3(C)OC3CCC(C)=CC(OC(C)=O)C12 (stereo not given)	inconclusive: 14.1 µM [inhibitor, partial curve, poor fit]	
CN1C2=CC=CC=CC2=[N+](C)C12C=CC(=[N+]([O-])[O-])C=C2[N+](=O)[O-] (stereo not given)	inconclusive: 31.6 µM [inhibitor, single point]	
CSc1nc(/C=C2\C=Nc3ccccc32)c(O)n1C	inconclusive: 10 µM [inhibitor, partial curve]	
Cc1[nH]c2ccccc2c1CCN	inactive	
CC(Oc1ccc(F)cc1)C(=O)N(CCC1=CCCCC1)c1c(N)n(Cc2ccccc2)c(=O)[nH]c1=O (stereo not given)	inconclusive: 11.2 µM [inhibitor, single point]	
CCN(CC)c1ccc(CNCCc2ccc(F)cc2)cc1	inconclusive: 28.2 µM [inhibitor, single point]	
CC(C)Nc1ccc(Nc2ccccc2)cc1	inconclusive: 28.2 µM [inhibitor, single point]	
c1ccc(N2CCN(c3nc(NCc4ccco4)c4ccccc4n3)CC2)cc1	inconclusive: 28.2 µM [inhibitor, single point]	
CCOC(=O)[C@]12Cc3cc(C)ccc3[C@H]1N(C)C(=O)c1cc(OC)ccc12	inconclusive: 28.2 µM [inhibitor, single point]	
CCCCC(=O)N/N=C/c1c(O)n(CCc2ccc(OC)c(OC)c2)c(=O)[nH]c1=O	inactive	
COc1ccccc1-n1c(/C=C/c2ccccn2)nc2ccccc2c1=O		inconclusive: -33% [inhibitor]
CCN1CCN(c2cc(C)c3cc(NC(=O)c4ccc(OC)c(OC)c4)ccc3n2)CC1	inconclusive: 7.94 µM [inhibitor, partial curve, poor fit]	
Nc1ccccc1C(=O)OC1CSC1	inactive	
CC1(C)CC(N2CCN(c3ccccc3)CC2)=CC(=[N+]2CCCC2)C1	inconclusive: 2.24 µM [inhibitor, full curve]	
COc1ccc(C(=O)/C=C/c2cccs2)c(OC(=O)N2CCOCC2)c1	inconclusive: 10 µM [inhibitor, partial curve, poor fit]	
C=CCN1C(=O)NC(=O)/C(=C/C=C/c2ccccc2)C1=O	inconclusive: 7.08 µM [inhibitor, partial curve, poor fit]	

Compound	Potency	activity change, negative = inhibition
COc1ccc2c(c1)c(CCN)c(C)n2Cc1ccccc1	inconclusive: 11.2 µM [inhibitor, single point]	
CC1CN(c2ccc([N+](=O)[O-])c3cccnc23)CC(C)N1 (stereo not given)	inconclusive: 10 µM [inhibitor, partial curve, poor fit]	
c1csc(-c2nnc(NC3CCCCC3)c3ccccc23)c1	inconclusive: 28.2 µM [inhibitor, single point]	
C/C(=N\N1CCCCCC1)c1c(O)n(-c2ccc(C)cc2)c(=O)[nH]c1=O	inconclusive: 4.47 µM [inhibitor, partial curve]	
Cc1cc2nc(Sc3c([N+](=O)[O-])nc(C)n3Cc3ccccc3)[nH]c2cc1C	inconclusive: 31.6 µM [inhibitor, single point]	
CCOc1cccc(=NC2CCCCC2)c2c(C)[nH]c(C)c12	inconclusive: 20 µM [inhibitor, single point]	
CCn1nc(/C=C/c2ccccc2)nc2c(=O)n(C)c(=O)nc1-2	inconclusive: 5.01 µM [inhibitor, single point]	
CN1CCN(c2ccc(N)cc2Cl)CC1	inconclusive: 28.2 µM [inhibitor, single point]	
CCCCCOc1ccc(C)cc1CN(CCCl)CCCl	inconclusive: 28.2 µM [inhibitor, single point]	
Cc1ccc(S(=O)(=O)CCC(=O)N(CCCN2CCOCC2)c2nc3ccccc3s2)cc1	inconclusive: 12.6 µM [inhibitor, single point]	
O=C1NC(=O)N(c2ccccc2)C(=O)/C1=C/c1ccc(Sc2ccccc2)o1	inconclusive: 3.98 µM [inhibitor, single point]	
Oc1ccccc1-[n+]1c(-c2ccccc2)cc(-c2ccccc2)cc1-c1ccccc1	inconclusive: 7.08 µM [inhibitor, partial curve, poor fit]	
CC(C)(C)NCCC(O)c1cc(C(F)(F)F)nc2c(C(F)(F)F)cccc12 (stereo not given)	inconclusive: 28.2 µM [inhibitor, single point]	
O=S(=O)(c1ccc(Cl)c(NC(=S)N/N=C/c2ccc(O)cc2)c1)N1CCOCC1	active: 10 µM	
c1ccc(C2(CN3CCNC[C@H]3Cc3cccc4ccccc34)CC2)cc1	inconclusive: 28.2 µM [inhibitor, single point]	
c1ccc2c(N3CCNCC3)nsc2c1	inconclusive: 14.1 µM [inhibitor, partial curve, poor fit]	
COc1ccc(OC)c(C2C3=C(N=c4s/c(=C\c5cccc(O)c5)c(=O)n42)c2ccccc2CC3)c1 (stereo not given)	inconclusive: 28.2 µM [inhibitor, single point]	
O=[N+]([O-])c1cc(Cl)cc(/C=N\Nc2ccccn2)c1O	inconclusive: 2.24 µM [inhibitor, full curve]	
CCOc1ccc(N2C(=O)/C(=C/c3ccco3)C(=O)NC2=S)cc1	inconclusive: 14.1 µM [inhibitor, single point]	
O=C(Nc1ccc(Cl)cc1)Nc1nccs1	inconclusive: 20 µM [inhibitor, partial curve, poor fit]	
